# The other results are listed elsewhere or left out.
# B1: rCnSL-proA (Clitocybe nebularis) (protein)
# chain: AAFFSLVVLLALLPFGIHASALPSTELTPRVNPNLPGPNDVFVGFRGTNNIVGAIYEKDGIKDTPLNNGADAEMGPGSYITDGLFTARIFASGSAGNNPGTTATVCKIYASGVQWRGAPKGYIPVAYFGNGPTAEQRRQTYLRTLGLPGTAIRFGNLNTNPGQGPTAPRQMVVPPGPLRSLLKASCFPAADTRLPQTLHYFEKRVDWNIITAADSQTWGH
# Key:
# Experiment in all cases: glycan array binding signal (z-score within array); higher = stronger binding
# Conditions in all cases: glycan notation: IUPAC condensed, linker removed
# [1] = biological target: Fuc(a1-2)Gal(b1-4)GlcNAc(b1-3)Gal(b1-4)GlcNAc(b1-3)Gal(b1-4)GlcNAc
# How it was run: (§1)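 From the Consortium for Functional Glycomics database, 3228 arrays were curated, keeping only those whose protein sequence was available. Binding is given as a within-array Z-score averaged across arrays sharing a protein sequence and across linkers. Negative Z-scores can be read as non-binding.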
# [2] = biological target: Fuc(a1-2)Gal(b1-4)GlcNAc(b1-3)GalNAc
# How it was run: as §1
# [3] = biological target: Fuc(a1-2)Gal(b1-4)GlcNAc(b1-3)[Fuc(a1-2)Gal(b1-4)GlcNAc(b1-6)]GalNAc
# How it was run: as §1
# [4] = biological target: Fuc(a1-2)Gal(b1-4)GlcNAc(b1-3)[Fuc(a1-3)[Gal(b1-4)]GlcNAc(b1-6)]Gal(b1-4)Glc
# How it was run: as §1
# [5] = biological target: Fuc(a1-2)Gal(b1-4)GlcNAc(b1-6)GalNAc
# How it was run: as §1
# [6] = biological target: Fuc(a1-2)Gal(b1-4)GlcNAc6S
# How it was run: as §1
# [7] = biological target: Fuc(a1-2)Gal(b1-4)[Fuc(a1-3)]GlcNAc
# How it was run: as §1
# [8] = biological target: Fuc(a1-2)Gal(b1-4)[Fuc(a1-3)]GlcNAc(b1-2)Man(a1-3)[Fuc(a1-2)Gal(b1-4)[Fuc(a1-3)]GlcNAc(b1-2)Man(a1-6)]Man(b1-4)GlcNAc(b1-4)[Fuc(a1-6)]GlcNAc
# How it was run: as §1
# [9] = biological target: Fuc(a1-2)Gal(b1-4)[Fuc(a1-3)]GlcNAc(b1-2)[Fuc(a1-2)Gal(b1-4)[Fuc(a1-3)]GlcNAc(b1-4)]Man(a1-3)[Fuc(a1-2)Gal(b1-4)[Fuc(a1-3)]GlcNAc(b1-2)Man(a1-6)]Man(b1-4)GlcNAc(b1-4)GlcNAc
# How it was run: as §1
# [10] = biological target: Fuc(a1-2)Gal(b1-4)[Fuc(a1-3)]GlcNAc(b1-3)Gal(b1-4)[Fuc(a1-3)]GlcNAc
# How it was run: as §1
# [11] = biological target: Fuc(a1-2)Gal(b1-4)[Fuc(a1-3)]GlcNAc(b1-3)Gal(b1-4)[Fuc(a1-3)]GlcNAc(b1-3)Gal(b1-4)[Fuc(a1-3)]GlcNAc
# How it was run: as §1
# [12] = biological target: Fuc(a1-2)Gal(b1-4)[Fuc(a1-3)]GlcNAc(b1-3)GalNAc
# How it was run: as §1
# [13] = biological target: Fuc(a1-2)Gal(b1-4)[Fuc(a1-3)]GlcNAc(b1-3)[Neu5Ac(a2-6)Gal(b1-4)GlcNAc(b1-6)]Gal(b1-4)Glc
# How it was run: as §1
# [14] = biological target: Fuc(a1-2)Gal3S(b1-4)GlcNAc
# How it was run: as §1
# [15] = biological target: Fuc(a1-2)Gal6S(b1-3)GlcNAc
# How it was run: as §1
# [16] = biological target: Fuc(a1-2)Gal6S(b1-3)GlcNAc6S
# How it was run: as §1
# Fuc(a1-2)Gal6S(b1-4)Glc = biological target: Fuc(a1-2)Gal6S(b1-4)Glc
# How it was run: as §1
# [17] = biological target: Fuc(a1-2)Gal6S(b1-4)Glc6S
# How it was run: as §1
# Fuc(a1-2)[Gal(a1-3)]Gal = biological target: Fuc(a1-2)[Gal(a1-3)]Gal
# How it was run: as §1
# [18] = biological target: Fuc(a1-2)[Gal(a1-3)]Gal(b1-3)GalNAc
# How it was run: as §1
# [19] = biological target: Fuc(a1-2)[Gal(a1-3)]Gal(b1-3)GalNAc(b1-3)Gal(a1-4)Gal(b1-4)Glc
# How it was run: as §1
# [20] = biological target: Fuc(a1-2)[Gal(a1-3)]Gal(b1-3)GlcNAc
# How it was run: as §1
# [21] = biological target: Fuc(a1-2)[Gal(a1-3)]Gal(b1-3)GlcNAc(b1-2)Man(a1-3)[Fuc(a1-2)[Gal(a1-3)]Gal(b1-3)GlcNAc(b1-2)Man(a1-6)]Man(b1-4)GlcNAc(b1-4)GlcNAc
# How it was run: as §1
# [22] = biological target: Fuc(a1-2)[Gal(a1-3)]Gal(b1-3)GlcNAc(b1-2)Man(a1-3)[Fuc(a1-2)[Gal(a1-3)]Gal(b1-3)GlcNAc(b1-2)Man(a1-6)]Man(b1-4)GlcNAc(b1-4)[Fuc(a1-6)]GlcNAc
# How it was run: as §1
# [23] = biological target: Fuc(a1-2)[Gal(a1-3)]Gal(b1-3)GlcNAc(b1-3)GalNAc
# How it was run: as §1
# [24] = biological target: Fuc(a1-2)[Gal(a1-3)]Gal(b1-3)GlcNAc(b1-6)GalNAc
# How it was run: as §1
# [25] = biological target: Fuc(a1-2)[Gal(a1-3)]Gal(b1-4)Glc
# How it was run: as §1
# [26] = biological target: Fuc(a1-2)[Gal(a1-3)]Gal(b1-4)GlcNAc
# How it was run: as §1
# [27] = biological target: Fuc(a1-2)[Gal(a1-3)]Gal(b1-4)GlcNAc(b1-2)Man
# How it was run: as §1
# [28] = biological target: Fuc(a1-2)[Gal(a1-3)]Gal(b1-4)GlcNAc(b1-2)Man(a1-3)[Fuc(a1-2)[Gal(a1-3)]Gal(b1-4)GlcNAc(b1-2)Man(a1-6)]Man(b1-4)GlcNAc(b1-4)GlcNAc
# How it was run: as §1
# [29] = biological target: Fuc(a1-2)[Gal(a1-3)]Gal(b1-4)GlcNAc(b1-2)Man(a1-3)[Fuc(a1-2)[Gal(a1-3)]Gal(b1-4)GlcNAc(b1-2)Man(a1-6)]Man(b1-4)GlcNAc(b1-4)[Fuc(a1-6)]GlcNAc
# How it was run: as §1
# [30] = biological target: Fuc(a1-2)[Gal(a1-3)]Gal(b1-4)GlcNAc(b1-3)GalNAc
# How it was run: as §1
# [31] = biological target: Fuc(a1-2)[Gal(a1-3)]Gal(b1-4)GlcNAc(b1-3)[Fuc(a1-2)[Gal(a1-3)]Gal(b1-4)GlcNAc(b1-6)]GalNAc
# How it was run: as §1
# [32] = biological target: Fuc(a1-2)[Gal(a1-3)]Gal(b1-4)GlcNAc(b1-6)GalNAc
# How it was run: as §1
# [33] = biological target: Fuc(a1-2)[Gal(a1-3)]Gal(b1-4)[Fuc(a1-3)]Glc
# How it was run: as §1
# [34] = biological target: Fuc(a1-2)[Gal(a1-3)]Gal(b1-4)[Fuc(a1-3)]GlcNAc
# How it was run: as §1
# [35] = biological target: Fuc(a1-2)[Gal(a1-3)]Gal(b1-4)[Fuc(a1-3)]GlcNAc(b1-3)GalNAc
# How it was run: as §1
# [36] = biological target: Fuc(a1-2)[Gal(a1-4)]Gal(b1-4)GlcNAc
# How it was run: as §1
# [37] = biological target: Fuc(a1-2)[GalNAc(a1-3)]Gal
# How it was run: as §1
# [38] = biological target: Fuc(a1-2)[GalNAc(a1-3)]Gal(b1-3)GalNAc(a1-3)[Fuc(a1-2)]Gal(b1-4)GlcNAc
# How it was run: as §1
# [39] = biological target: Fuc(a1-2)[GalNAc(a1-3)]Gal(b1-3)GalNAc(b1-3)Gal(a1-4)Gal(b1-4)Glc
# How it was run: as §1
# [40] = biological target: Fuc(a1-2)[GalNAc(a1-3)]Gal(b1-3)GlcNAc
# How it was run: as §1
# [41] = biological target: Fuc(a1-2)[GalNAc(a1-3)]Gal(b1-3)GlcNAc(b1-2)Man(a1-3)[Fuc(a1-2)[GalNAc(a1-3)]Gal(b1-3)GlcNAc(b1-2)Man(a1-6)]Man(b1-4)GlcNAc(b1-4)GlcNAc
# How it was run: as §1
# [42] = biological target: Fuc(a1-2)[GalNAc(a1-3)]Gal(b1-3)GlcNAc(b1-2)Man(a1-3)[Fuc(a1-2)[GalNAc(a1-3)]Gal(b1-3)GlcNAc(b1-2)Man(a1-6)]Man(b1-4)GlcNAc(b1-4)[Fuc(a1-6)]GlcNAc
# How it was run: as §1
# [43] = biological target: Fuc(a1-2)[GalNAc(a1-3)]Gal(b1-3)GlcNAc(b1-3)GalNAc
# How it was run: as §1
binder,measurement,setting,value
B1,glycan array binding signal (z-score),[1],-0.154
same,glycan array binding signal (z-score),[2],0.145
same,glycan array binding signal (z-score),[3],-0.121
same,glycan array binding signal (z-score),[4],-0.643
same,glycan array binding signal (z-score),[5],-0.359
same,glycan array binding signal (z-score),[6],-0.402
same,glycan array binding signal (z-score),[7],-0.453
same,glycan array binding signal (z-score),[8],0.746
same,glycan array binding signal (z-score),[9],0.882
same,glycan array binding signal (z-score),[10],-0.674
same,glycan array binding signal (z-score),[11],-0.409
same,glycan array binding signal (z-score),[12],-0.242
same,glycan array binding signal (z-score),[13],-0.085
same,glycan array binding signal (z-score),[14],-0.453
same,glycan array binding signal (z-score),[15],-0.527
same,glycan array binding signal (z-score),[16],0.338
same,glycan array binding signal (z-score),Fuc(a1-2)Gal6S(b1-4)Glc,-0.35
same,glycan array binding signal (z-score),[17],-0.281
same,glycan array binding signal (z-score),Fuc(a1-2)[Gal(a1-3)]Gal,-0.219
same,glycan array binding signal (z-score),[18],-0.214
same,glycan array binding signal (z-score),[19],-0.278
same,glycan array binding signal (z-score),[20],-0.04
same,glycan array binding signal (z-score),[21],0.319
same,glycan array binding signal (z-score),[22],0.768
same,glycan array binding signal (z-score),[23],0.321
same,glycan array binding signal (z-score),[24],0.055
same,glycan array binding signal (z-score),[25],-0.005
same,glycan array binding signal (z-score),[26],-0.394
same,glycan array binding signal (z-score),[27],-0.398
same,glycan array binding signal (z-score),[28],-0.363
same,glycan array binding signal (z-score),[29],0.409
same,glycan array binding signal (z-score),[30],-0.538
same,glycan array binding signal (z-score),[31],-0.073
same,glycan array binding signal (z-score),[32],-0.306
same,glycan array binding signal (z-score),[33],-0.598
same,glycan array binding signal (z-score),[34],-0.146
same,glycan array binding signal (z-score),[35],-0.588
same,glycan array binding signal (z-score),[36],0.128
same,glycan array binding signal (z-score),[37],-0.39
same,glycan array binding signal (z-score),[38],-0.544
same,glycan array binding signal (z-score),[39],-0.274
same,glycan array binding signal (z-score),[40],0.497
same,glycan array binding signal (z-score),[41],-0.563
same,glycan array binding signal (z-score),[42],0.696
same,glycan array binding signal (z-score),[43],0.293
